Test results reported in PubChem BioAssay AID1347073 (National Center for Advancing Translational Sciences (NCATS), 2019).
The campaign covered roughly 45,000 compounds. About 200 (0.44%) were called active. Roughly 7% stayed inconclusive and do not appear here. The call rests on the fitted dose curve; in most records, active means well fitted activation curve with a large enough effect; inconclusive means small, poorly fitted or top-dose-only effect; inactive means no such curve, though single readings can be large or run the other way. The list shows a part of the results.

assay: qHTS of TDP-43 Inhibitors: NCGC Sytravon Library Screen; details: yeast TDP-43 toxicity rescue, BacTiter-Glo growth, 24 h; series mostly up to 46.1 µM; growth rescue (activation): at the top concentration; further: 0% is about no effect; nearly all actives have a fitted effect of over 55% in size
Summary of the method: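 TDP-43-expressing yeast, pregrown in raffinose, seeded at OD600 0.02 in galactose medium with compound for 24 hr at 30 deg C. Growth read by BacTiter-Glo luminescence, so rescue of toxicity appears as activation.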

Row | SMILES | growth rescue (activation)
1 | CC(OC(=O)c1ccco1)C(=O)NC1CCCC1 (centres undefined) | inactive: 12.9%
2 | Cc1cc(C)c(S(=O)(=O)c2ccccc2C)c(OCCO)n1 | inactive: 11.4%
3 | COc1ccc(C(C(=O)NC2CCCCC2)N(CC2CCCO2)C(=O)CCCC(=O)Nc2ccccn2)cc1 (centres undefined) | inactive: 2.86%
4 | Cc1ccc(NC(=O)CN2C(=O)C(c3ccccc3)=NC23CCCCC3)cc1C | inactive: 20.1%
5 | Cc1cc(C)cc(Cn2c3ccc(NC(=O)NCCc4cccs4)cc3c(=O)n2C)c1 | inactive: 10.6%
6 | COc1cc([N+](=O)[O-])ccc1NC(=S)Nc1cc(C(=O)OC(C)C)cc(C(=O)OC(C)C)c1 | inactive: 9.22%
7 | Cc1ccc(C(=O)NNC(=O)c2cccc(Br)c2)cc1 | inactive: -6.18%
8 | CCn1nccc1NC(=O)c1csc([C@@H]2O[C@H](CO)[C@H](O)[C@H](O)[C@H]2O)n1 | inactive: -12.5%
9 | O=C(CCNC(=O)c1ccco1)Nc1ccccc1OC(F)F | inactive: 6.61%
10 | COc1cccc2cc(C(C)N(CCCN3CCOCC3)C(=S)Nc3ccc(C)cc3)oc12 (centres undefined) | inactive: 7.68%
11 | O=C(N/N=C/c1cn(-c2ccccc2)nc1-c1ccc2c(c1)OCCO2)c1ccncc1 | inactive: 6.01%
12 | CCCCNC(=O)C1(C)CCN1C(=O)c1ccc(C)c(F)c1 (centres undefined) | inactive: 3.48%
13 | COc1ccc(C(=O)NNC(=O)C(=O)Nc2ccc(C)cc2)cc1 | inactive: 8.19%
14 | CCOC(=O)C1CCN(C(=O)COC(=O)CSc2ccccc2C)CC1 | inactive: 11.4%
15 | CS(=O)(=O)CCC(C(=O)OCc1ccc(Br)cc1)N1C(=O)c2ccccc2C1=O (centres undefined) | inactive: 7.47%
16 | Brc1ccc(-c2csc(N/N=C/c3ccc4c(c3)OCO4)n2)cc1 | inactive: 7.41%
17 | COc1ccccc1CCNC(=O)CNC(=O)c1ccc2ccccc2c1 | inactive: 7.44%
18 | Cc1ccc(NC(=O)C2=CN3CCS(=O)(=O)N=C3C=C2)cc1 | inactive: 2.21%
19 | Cc1ccc(CNc2ccc(N3CCOCC3)cc2)cc1 | inactive: -9.89%
20 | Cc1ccc2nc(-c3ccc(NC(=O)CN4C(=O)NC(C)(c5ccc(OC(F)F)cc5)C4=O)cc3)sc2c1 (centres undefined) | inactive: 12.5%
21 | COc1ccccc1NC(=O)CSc1nnc(NC(=O)C2CC2)s1 | inactive: 4.22%
22 | CCOCCCNC(=O)c1ccc(Cn2c(=S)[nH]c3c([nH]c4ccc(OC)cc43)c2=O)cc1 | inactive: -11.9%
23 | O=C1NC2(CCC3(CC2)OCCO3)NN1c1ccccc1 | inactive: 12.6%
24 | CC1CCc2c(sc(NC(=O)CN3CCN(C(=O)c4ccco4)CC3)c2C#N)C1 (centres undefined) | inactive: 37.3%
25 | Cc1cc2oc(C(=O)N(Cc3ccc(Cl)cc3)Cc3ccco3)c(C)c2cc1Cl | inactive: 0.865%
26 | Cc1ccnc(N2CCCC(C(=O)NC3CC3)C2)n1 (centres undefined) | inactive: 7.05%
27 | CCCCCc1ccc(-c2ccc(OC)cc2)nc1 | inactive: 30.4%

Row | SMILES | growth rescue (activation)
28 | CC1C/C(=N\NC(=O)CCc2ccc(S(=O)(=O)N3CCOCC3)cc2)CC(C)(C)C1 (centres undefined) | inactive: 7.04%
29 | Cc1c(NC(=O)c2cccs2)cccc1NC(=O)c1cccs1 | inactive: 10.1%
30 | Cc1ccc(CC(=O)Nc2ccc(C(=O)N3CCCCC3)cc2)cc1 | inactive: 8.92%
31 | COc1cccc(NC(=O)Nc2ccc(CC(=O)O)cc2)c1 | inactive: -2.07%
32 | CCOC(=O)c1cc(-c2ccccc2)n(CC(=O)Nc2cccc(OC)c2)c1C | inactive: 21.6%
33 | CCOC(=O)c1sc2cc([N+](=O)[O-])cc(SCCO)c2c1N | inactive: 10.6%
34 | Nn1c(Nc2ccccc2)nc2ccccc21 | inactive: -10.6%
35 | Cc1cc(OCCCC(=O)NCCc2ccccn2)ccc1Cl | inactive: -1.5%
36 | COc1ccc(CN2CCN(C(C)C(=O)N3CCc4ccccc43)CC2)cc1OC (centres undefined) | inactive: 3.2%
37 | Cc1ccc(NC(=O)Cc2csc(-c3ccccc3)n2)cc1F | inactive: 10.4%
38 | NC(=O)CCN(C1CCCCC1)S(=O)(=O)c1cccc2nsnc12 | inactive: 13.1%
39 | Cc1cc(=O)[nH]c(SCC(=O)NCC2CCCCC2)c1C#N | inactive: 15.5%
40 | CC(Nc1nc(-c2cccnc2)nc2ccccc12)c1ccc(F)cc1 (centres undefined) | inactive: 2.21%
41 | Cc1nccn1CC(O)COc1ccc([N+](=O)[O-])cc1 (centres undefined) | inactive: 0.904%
42 | Cc1nn(-c2ccc(F)cc2)c(Cl)c1/C=C(/CCC(=O)O)c1nc2ccccc2s1 | inactive: 2.28%
43 | CCOC(=O)c1cccc(NC(=O)c2ccc(NC(=O)C3CCCO3)cc2)c1 (centres undefined) | inactive: 21.7%
44 | COc1ccc(N2C(=O)/C(=C3/C=CC=CN3C)SC2=S)cc1 | inactive: -4.7%
45 | Cn1c(NCc2cccc(Cl)c2)nc2ccccc21 | inactive: 4.91%
46 | O=C(NCc1ccccc1)c1ccc(=O)oc1 | inactive: 14.3%
47 | CC1CCc2c(sc3ncnc(NCc4cccnc4)c23)C1 (centres undefined) | inactive: 4.85%
48 | CC1CCCCC1NCC(=O)Nc1ccccc1C(=O)Nc1ccccc1 (centres undefined) | inactive: 13.7%
49 | CN(Cc1ccccc1)C(=O)COC(=O)C1=NNC(=O)CC1 | inactive: 2.44%
50 | Brc1ccc(-c2csc3[n+]2CCCCC3)cc1 | inactive: -5%
51 | Cc1cc(NC(=O)C2CC(c3c(F)cccc3Cl)=NO2)n(-c2ccccc2)n1 (centres undefined) | inactive: 11.9%
52 | CCS(=O)(=O)c1ncc(Cl)c(C(=O)Nc2ccc(S(=O)(=O)N(C)c3ccccc3)cc2)n1 | inactive: -3.88%
53 | NC(Cc1ccc(C(F)(F)F)cc1)c1csc(Nc2cnccn2)n1 (centres undefined) | inactive: 10.3%
54 | C/C(=N\NC(=O)COc1ccc(C(C)(C)C)cc1)c1ccc(-n2ccnc2)cc1 | inactive: 23%
